Measurements: the BET-seq Pho4 binding data (Le et al. 2018)
Some of the results follow. Values were computed here from the reads of four pooled replicates and scatter widely.

target: T1, Pho4 (S. cerevisiae) (UniProt P07270); assay: relative binding free energy (BET-seq); higher = weaker binding; details: reference: library average
T1 sequence: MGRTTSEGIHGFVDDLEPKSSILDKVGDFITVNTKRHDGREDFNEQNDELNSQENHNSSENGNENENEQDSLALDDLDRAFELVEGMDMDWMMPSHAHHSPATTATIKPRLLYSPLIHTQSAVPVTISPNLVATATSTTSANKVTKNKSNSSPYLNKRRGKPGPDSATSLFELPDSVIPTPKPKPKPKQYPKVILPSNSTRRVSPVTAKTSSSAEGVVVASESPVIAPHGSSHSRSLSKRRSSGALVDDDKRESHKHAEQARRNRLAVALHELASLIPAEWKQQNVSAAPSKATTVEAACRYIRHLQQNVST

Sequence | relative binding free energy [kcal/mol]
ATTAGCACGTGGTCTG | -0.26
TGGCTCACGTGAGGGT | 0.28
GATCGCACGTGGGGGA | -0.24
TGAGTCACGTGGACTG | 0.08
GGTTCCACGTGTGGGA | 0.11
TATTACACGTGTTTTC | 0.09
ATTGGCACGTGCTGAG | -0.15
ATGTCCACGTGAGGTG | 0.1
CATGGCACGTGAGGGA | -0.02
TTTGACACGTGGGTCA | -0.15
CTACGCACGTGTTGGT | -0.15
AAGGTCACGTGGCTTT | 0.19
CGCTGCACGTGGGGGG | -0.23
ATGGACACGTGAGTGC | 0.16
AGTAGCACGTGGGTGA | -0.26
ATTCTCACGTGTAGTG | 0.36
AGGTACACGTGAAAGT | 0.23
GGAGGCACGTGGATTT | -0.04
ACGGGCACGTGGGTTT | -0.21
AGTTTCACGTGCGTGG | 0.16
GGGGTCACGTGAACGT | 0.24
GTTGGCACGTGGGGGA | -0.14
GGGAGCACGTGTTTTA | -0.08

Sequence | relative binding free energy [kcal/mol]
GATAACACGTGATGTA | 0.28
TAGTACACGTGGATTT | 0.06
TTAGGCACGTGGCGCG | -0.33
TGTGGCACGTGGTCGA | -0.18
ACGGGCACGTGTTTGT | -0.16
AGATTCACGTGTTCGA | 0.25
CAGCGCACGTGGGGGA | -0.25
TGCTGCACGTGGGTCG | -0.17
TTTAACACGTGTTAGA | -0.05
TTTTTCACGTGTGTCA | 0.32
GTTGCCACGTGAGGAG | 0.2
TCGATCACGTGAGGGT | 0.39
TGATGCACGTGTGGGC | -0.03
GGGTCCACGTGGGATT | 0.04
TGTCGCACGTGGTAAG | -0.06
ATAGGCACGTGAAGGT | 0.1
TGTTCCACGTGTTTGA | 0.18
ACAGACACGTGGTTGG | -0.08
TTTGTCACGTGTATAC | 0.02
CTAGACACGTGGTTGT | -0.05
ATATTCACGTGGAGGA | 0.03
TGGCTCACGTGTGTTC | 0.32
GTTTCCACGTGGATGA | 0.2

Sequence | relative binding free energy [kcal/mol]
CTGAGCACGTGCGGTG | -0.16
CATGGCACGTGTAGGT | -0.08
TTGTGCACGTGTATCT | -0.13
AAGTACACGTGGGTGA | -0.06
TGGATCACGTGGTACT | 0.12
AAGTGCACGTGGGGTA | -0.18
GTTTACACGTGTAGCT | 0.14
TGTGTCACGTGAGTCA | 0.24
CACGGCACGTGGGTGG | -0.2
GGGTTCACGTGTTGGG | 0.43
TGTAACACGTGTTCGG | -0.1
TGTTACACGTGCTATG | -0.01
GTGTACACGTGATGCT | 0.15
ATTTTCACGTGTGCCA | 0.26
TATGACACGTGAATGG | 0.3
TTTTACACGTGTTAGG | 0.06
TGGATCACGTGTAGTC | 0.12
TGAGGCACGTGTCGTG | 0.04
TTATGCACGTGTTGTT | -0.03
GTTAGCACGTGAAGTA | 0.35
GTATGCACGTGAGAGA | 0.19
ATACGCACGTGAGTGT | 0.02
AATCTCACGTGGAGGT | 0.14

Sequence | relative binding free energy [kcal/mol]
GTGTTCACGTGCAGAA | 0.33
TGGCCCACGTGTTTGG | -0.06
GTACGCACGTGAGAGT | 0.4
ATTAACACGTGTCTGG | -0.02
TACTTCACGTGGTTTA | 0.2
TACGCCACGTGGGTGG | -0.17
AGCAACACGTGTGTTT | 0.05
ATAGTCACGTGCACGG | 0.19
GCTGTCACGTGTTGTG | 0.09
ATGTTCACGTGGATGG | 0.12
TTTGACACGTGAGGAA | 0.12
GTGCTCACGTGTGTGG | 0.25
TGACGCACGTGGCTTG | -0.1
TTGGACACGTGCTGGT | 0.03
TGGGGCACGTGCTGTT | -0.25
TGTTGCACGTGGCAGT | -0.09
TGTTGCACGTGGGAAC | 0
GGAAGCACGTGGGCTG | -0.14
GGGCGCACGTGAGTGT | 0.09
GGTTGCACGTGCTGGG | 0
TTATACACGTGAAGAT | 0.33
TGGTCCACGTGTGGAG | -0.14
ATTATCACGTGGACGG | 0.08

Sequence | relative binding free energy [kcal/mol]
GATTGCACGTGCTGTT | 0.02
CTGTGCACGTGGGGTT | -0.23
GGGTGCACGTGGGTAC | -0.13
TTACGCACGTGGTTGG | -0.1
CTCGACACGTGTTGGG | 0.07
TTGTCCACGTGTATTT | 0.13
ATGATCACGTGGTTAG | -0.06
TGAAACACGTGGGTGC | -0.16
TATTCCACGTGAGTGT | 0.32
CAAGTCACGTGGGTCG | 0.01
TGTGGCACGTGCAGGC | -0.06
GAATTCACGTGGGTTA | 0.09
TAATGCACGTGGTGGG | -0.09
ATAGGCACGTGAGGTT | -0.04
GGGGCCACGTGATTTG | 0.16
TCTTACACGTGGGAGT | 0.15
GGAAGCACGTGAGTAT | 0.05
AGAGGCACGTGCTGGT | -0.21
TATAACACGTGGTAGT | -0.16
TGACACACGTGGTATT | -0.01
GTATTCACGTGGCGGC | 0.27
TCGGGCACGTGATGGA | 0.03
ATGTGCACGTGGCGCT | -0.08
